The list shows a part of the results.
system: T1, Caupolican (Caup) homeodomain DNA-binding domain; assay: PBM E-score (8-mer, recovered from the published 9-mer minima) (E-score (dimensionless, -0.5 to 0.5)); Drosophila protein; higher = stronger relative binding preference, active = 0.31 or more
T1 sequence: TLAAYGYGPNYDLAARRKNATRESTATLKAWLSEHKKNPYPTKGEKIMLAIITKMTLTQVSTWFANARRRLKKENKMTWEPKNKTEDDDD
Method in brief: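 An enrichment score, with higher meaning stronger, expresses relative binding preference for each short DNA word. The protein used was Caup's homeodomain DNA-binding domain (residues 214-303), produced by in vitro transcription and translation and tested at 100 nM on custom-designed protein binding microarrays. The 8-mer values were recovered from published 9-mer scores, each equal to the lower of its two constituent 8-mer scores.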

Row | Sequence | PBM E-score
1 | CCTATTCG | inactive: -0.113
2 | TAGCCCTA | inactive: -0.0874
3 | AAGATCAG | inactive: -0.0552
4 | ACTCTAGC | inactive: -0.174
5 | CTTTTCTC | inactive: -0.0505
6 | CTGTGTCC | inactive: 0.172
7 | ACCGTCTA | inactive: -0.108
8 | AACACGCT | inactive: 0.267
9 | AATCATAC | inactive: 0.157
10 | GAGCACGC | inactive: -0.14
11 | AAAGTCGA | inactive: -0.0806
12 | ACCGGGTA | inactive: -0.0429
13 | CAGCATGA | inactive: 0.117
14 | AAATATCT | inactive: 0.14
15 | AAGACACA | inactive: 0.196
16 | GTCCCGAA | inactive: -0.047
17 | CGTCCAAC | inactive: 0.0437
18 | ACCGCGTG | inactive: -0.111
19 | CTAGGCTC | inactive: -0.209
20 | ATATCAAC | inactive: 0.111
21 | ATATATAT | ≥ 0.28
22 | GCTCACAA | inactive: 0.0103
23 | TCCAGGCA | ≥ -0.043
24 | AGAACGAG | inactive: 0.108
25 | CCATCATC | inactive: 0.0538

Row | Sequence | PBM E-score
26 | AACGCTAG | inactive: -0.1
27 | ACGTCTCT | inactive: -0.116
28 | CGATGTCA | active: 0.311
29 | CCCCCGCC | inactive: -0.378
30 | GACACAGC | inactive: 0.157
31 | AGAGTTAT | inactive: 0.0566
32 | GACGAGTA | inactive: 0.08
33 | CTTTTAGA | inactive: -0.0649
34 | CCAAGTAA | inactive: 0.0669
35 | GTGCCCAC | inactive: -0.155
36 | AACACCCC | inactive: 0.0993
37 | GCTTTGCA | inactive: -0.133
38 | CTGGCGCA | inactive: -0.206
39 | CTTACGGC | inactive: -0.188
40 | AACCTTTA | inactive: 0.0158
41 | CCGTCCTC | inactive: -0.166
42 | AAACCGGA | inactive: 0.0214
43 | TAGGAGGA | inactive: -0.0127
44 | CCCTGGCA | inactive: -0.203
45 | ACCTCAAA | inactive: -0.032
46 | GGAACTAC | inactive: 0.0255
47 | CGGGAAGC | inactive: -0.102
48 | GAAAAACA | inactive: 0.217
49 | CACCCGCC | inactive: -0.0866
50 | CAGTGTAG | inactive: 0.171

Row | Sequence | PBM E-score
51 | ATAACCTC | inactive: 0.0841
52 | ATAGTATG | inactive: 0.157
53 | AGGGTGGA | inactive: -0.164
54 | ACTTACGA | ≥ 0.104
55 | GGGAGCAA | inactive: -0.103
56 | GCCACGGC | inactive: -0.241
57 | AGTCGTAA | inactive: 0.0717
58 | GCTCCAGC | inactive: -0.186
59 | CATACAGC | inactive: 0.0231
60 | CCCAAGCA | inactive: -0.0938
61 | GAAGCTCC | inactive: -0.207
62 | GACGCTTA | inactive: -0.058
63 | ACACTAGG | inactive: 0.0687
64 | CTCCATAC | inactive: -0.0486
65 | GGGTACAC | inactive: 0.14
66 | AAAACCAC | inactive: 0.0457
67 | GCGCGTGA | inactive: -0.13
68 | CTCTTGTA | inactive: 0.299
69 | CCTCTCTA | inactive: -0.218
70 | GGCACGGA | inactive: -0.0745
71 | GTCGCAAC | inactive: 0.0137
72 | CTAACATA | inactive: 0.28
73 | AAAGATTC | ≥ 0.0886
74 | AAGGTGAC | inactive: 0.0671
75 | GGATAATA | inactive: 0.042

Row | Sequence | PBM E-score
76 | GGTGGAAA | inactive: -0.0874
77 | GTGCCTCA | inactive: -0.266
78 | GTCCTTTA | inactive: 0.0147
79 | CGCGCCAG | inactive: -0.304
80 | ACCTCGTC | inactive: 0.0147
81 | GGCGGGAC | inactive: -0.206
82 | AGGACCAC | inactive: -0.0375
83 | GATTCCAC | inactive: 0.045
84 | ACGTAGAT | inactive: 0.102
85 | GGCTTCGA | inactive: -0.14
86 | CACAAAGA | inactive: 0.0433
87 | AAGGACAC | inactive: 0.147
88 | ACTGTCGC | inactive: -0.026
89 | GGTAAAAA | inactive: 0.0552
90 | TATCCAAA | inactive: 0.133
91 | TCTGATAA | inactive: 0.134
92 | GCTAAAGA | inactive: 0.0318
93 | CTCTGTTC | inactive: 0.119
94 | CTAGAAAA | inactive: 0.0157
95 | CGATGGGC | inactive: -0.165
96 | ATGAGCTC | inactive: -0.0796
97 | CAATACTC | inactive: 0.142
98 | CACGCGGC | inactive: -0.117
99 | CCGTTGTC | inactive: 0.183
100 | GGGCTCGA | inactive: -0.143

Row | Sequence | PBM E-score
101 | AAAATTGG | inactive: -0.0443
102 | ACGGCTAT | ≥ 0.00537
103 | CACGGCGC | inactive: -0.084
104 | AACACAGA | inactive: 0.248
105 | CTGGTTGC | inactive: -0.00962
106 | CAGTAGAC | inactive: 0.0172
107 | GAATTAAC | inactive: 0.12
108 | GGTGGTTA | inactive: 0.0166
109 | CCCCCGAA | inactive: -0.174
110 | AAAGGAAT | inactive: 0.0889
111 | AGCTGGCC | inactive: -0.176
112 | GCGATTTA | inactive: -0.0705
113 | GATAGGGC | inactive: -0.174
114 | GAATCTAA | inactive: 0.00078
115 | CATCCTAC | inactive: 0.0299
116 | AGCCACTG | inactive: -0.117
117 | GGTTGCAC | inactive: 0.0564
118 | GAGCCTCA | inactive: -0.214
119 | CTAAGGAG | inactive: -0.251
120 | CCCGTATC | inactive: -0.0196
121 | TAGTCACA | ≥ 0.182
122 | GCCGGAAA | inactive: -0.0982
123 | TGCAGCCA | inactive: -0.0784
124 | CTAGTGAC | inactive: 0.0755
125 | AGCCTTCA | inactive: -0.119

Row | Sequence | PBM E-score
126 | CGCAGTAG | inactive: -0.118
127 | CATGAGCC | inactive: -0.00819
128 | ATTGGGGA | inactive: -0.0647
129 | AATCACTA | inactive: 0.0509
130 | AGGACGAA | inactive: -0.0156
131 | AATGCCGT | inactive: -0.0301
132 | CATTGCAA | inactive: 0.0755
133 | TAAAGCAA | inactive: 0.0811
134 | CTCGCCCA | inactive: -0.135
135 | GGTACAAA | inactive: 0.256
136 | CTCGATGA | inactive: 0.0198
137 | CGCATCGA | inactive: -0.0433
138 | AACACCTC | inactive: 0.122
139 | TATCACCA | inactive: 0.111
140 | AGCCAGCT | inactive: -0.123
141 | ATTGTCCG | inactive: 0.122
142 | CCATAGCG | inactive: -0.107
143 | AATTGCCA | inactive: 0.00324
144 | AAGGGCTG | inactive: -0.198
145 | CCGATATC | inactive: 0.0407
146 | AATACAAA | inactive: 0.284
147 | ACGCGGTG | inactive: -0.101
148 | GAAGATGC | inactive: -0.152
149 | AGATTGGA | inactive: 0.0439
150 | CCTATACC | inactive: -0.0691

Row | Sequence | PBM E-score
151 | GGCGATCA | inactive: -0.042
152 | CAGACAGG | inactive: 0.0281
153 | GAACCTAA | inactive: -0.0651
154 | GGAGGGAA | inactive: -0.186
155 | CGCCAAAC | inactive: -0.0574
156 | AACAAGGC | inactive: 0.292
157 | CACGATTC | inactive: 0.153
158 | GCTCGACA | inactive: 0.0642
159 | CAGGCCTC | inactive: -0.158
160 | GACTTCCC | inactive: -0.156
161 | CGAAACAC | inactive: 0.101
162 | TACTGCAA | inactive: 0.125
163 | ACCTGGAG | inactive: 0.037
164 | AACTTGCT | inactive: 0.0485
165 | TATTCCGA | inactive: 0.0967
166 | ATTACGTC | inactive: 0.109
167 | CGCATAAC | inactive: -0.0228
168 | TGCAGGCA | inactive: -0.0274
169 | ACCCTTGG | inactive: -0.124
170 | TCCAGCCA | inactive: -0.0664
171 | CCAATCGC | inactive: -0.0369
172 | AGCAAGGC | inactive: -0.12
173 | TACAGTGA | ≥ 0.218
174 | ACAAGTCA | inactive: 0.226
175 | AACATGGG | active: 0.351

Row | Sequence | PBM E-score
176 | GGCATAAC | inactive: 0.0348
177 | CTGTCGGA | inactive: 0.15
178 | ACACGTGG | inactive: 0.214
179 | AGATGCTA | inactive: 0.0221
180 | ATGACAGG | inactive: 0.117
181 | AAATGCAT | inactive: 0.0673
182 | GTGCCGGA | inactive: -0.178
183 | CCGTCTCG | inactive: -0.0932
184 | CTAGAGGC | inactive: -0.132
185 | AGTGCAGC | inactive: -0.0939
186 | ACGATCGA | inactive: 0.109
187 | AATATGAT | inactive: 0.0857
188 | AGTGACGC | inactive: -0.155
189 | GTTCCTGA | inactive: 0.0212
190 | CGCTTTTA | inactive: -0.0253
191 | ATCACGGC | inactive: -0.0188
192 | GAGTAAGA | inactive: 0.047
193 | GGACGGGA | inactive: -0.132
194 | AACCACTA | inactive: 0.13
195 | GCTTAACC | inactive: -0.0366
196 | AGAGCCCC | inactive: -0.28
197 | ACACTTGA | inactive: 0.076
198 | CCACATAC | inactive: 0.127
199 | GAAAGTAC | inactive: 0.00295
200 | TCATAGAA | inactive: 0.0848

Row | Sequence | PBM E-score
201 | GACGATAC | inactive: 0.0456
202 | GCATCATA | inactive: 0.157
203 | ACATAGGT | inactive: 0.261
204 | GACCAACA | inactive: 0.172
205 | ATAGAAGA | inactive: 0.0591
206 | ATCACGCC | inactive: -0.0355
207 | GTAGACGA | ≥ 0.091
208 | ACACACCA | ≥ 0.258
209 | AGAGCGAG | inactive: -0.167
210 | CCTACGCC | inactive: -0.234
211 | TAGTGGGA | inactive: -0.00106
212 | ACCCGGGG | inactive: -0.287
213 | GATTACGC | inactive: 0.0519
214 | CTCGGTCA | inactive: -0.0203
215 | AAGTGATC | inactive: 0.159
216 | ATATTGGA | inactive: 0.106
217 | TCAGGAAA | inactive: -0.0401
218 | CCGAGCCA | inactive: -0.155
219 | CGAAAGAG | inactive: -0.131
220 | TAGTATGA | inactive: 0.189
221 | CAAATGCA | inactive: 0.0587
222 | AATTTGCT | inactive: 0.104
223 | GCAAATGA | inactive: -0.0169
224 | GCGAGAGC | inactive: -0.245
225 | AATTTAAT | inactive: 0.178

— the supplement of paper PMC3724861
